According to the supplement of paper PMC11417369:
This is one part of the list.

Each sequence was assayed on PfSIP2 AP2 domain 1 (GST-tagged) (assay: gcPBM binding intensity (ln(normalized median fluorescence intensity)); higher = stronger DNA binding).
In short: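 Each value is the highest Masliner-normalised natural-log median intensity across replicate spots of either orientation of a probe. The probes were primer-extended double-stranded 36-bp intergenic genomic sequences on an Agilent 4 × 180k array, alongside negative controls, exposed for 1 h to GST-tagged P. falciparum DNA-binding domains expressed in E. coli. Bound protein was picked up with Alexa488 anti-GST antibody and scanned at 488 nm.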

Sequence | gcPBM binding intensity (ln)
AATATATTAAATATTACACACATACATTTAGTGTAA [CACACA_site5145] | 7.07
TATATATTAAACTTTGCACACATAATTTAACTACAA [CACACA_site3440] | 7.4
TTTATTTTATTCACTATCATAAGCAAAACTTAAACA [GTGCAC_negctrl_site287] | 6.88
ATTAATAATATTACATGTACATAATATAATTGAAAA [XGTACX_site5084] | 7.14
TAGTTAATATGATTATGTACATATATATATTAATTT [XGTACX_site1750] | 7.13
TTAGATATTATTATATGTACATATTATATGTATTAT [XGTACX_site3836] | 7.02
ATTTTTTTTTTTTTTTTTTTTTTTTTTTTTGTTGTT [CACACA_negctrl_site1313] | 7.02
TGTATATGAAAAAATAGTACTCATATAAATATCTTT [XGTACX_site6542] | 6.89
ATAATATATTTATAAACACACAAAAAAAGTTATATA [CACACA_site6831] | 6.95
ATATACATATCAATGTAATATTATATACTTTTTTAG [CACACA_negctrl_site816] | 6.77
AAAAAAATAAATAAATGTACATATATAAAACATTGT [XGTACX_site2136] | 6.94
ATATAATTATATTCCATACACACATATATTTAAAGG [CACACA_site2958] | 7.04
AAACGAGAACATAATAAATACATAAATAAATAAATA [GTGCAC_negctrl_site433] | 6.77
ATATTTTCCCTTGTTTTACACACGTGCTGATATGAG [CACACA_site8672] | 7.42
AATTTGAAATATGTGGTGCAGTTATATAATATGTTT [GTGCAC_site9885] | 10.3
TGTAGTCTGGAGAAAAGTACACAGTATCTGGTAACC [XGTACX_site2033] | 7.09
ATATAGAATAAAACTATACACACCTATATTTAAACA [CACACA_site1902] | 6.81
ATATAAAAAAATAATAAATAAATAAAAAGATTTCTT [XGTACX_negctrl_site110] | 6.78
CTTGTATAGAAACACACACACACTTTCTTTTTTTAA [CACACA_site1964] | 6.95
TATATTAATAAAGGTACTACACGGAAATGGAAATAT [XGTACX_site7760] | 7.54
AACAAATACGAACACACACACACACTAAAAAAAAAA [CACACA_site6386] | 7.27
AGGATATAATACCATACACACATTTATAAAATAACA [CACACA_site1930] | 7.15

Sequence | gcPBM binding intensity (ln)
ATATATATTATATATATATATATATATATATATATA [CACACA_negctrl_site493] | 9.06
ATAATATGAAAACACACACACACACCCAAAAAAAAA [CACACA_site2011] | 7.13
TGTAATCAAAAAAATAGTACATAAATTGTGTATACT [XGTACX_site5908] | 6.96
TAATAAATAAATGACACACACACACGCAAAAAAAAA [CACACA_site7275] | 7.06
TAGATTTTTATGCGTGCACACATTTAAAAAAAAAAC [CACACA_site3421] | 8.88
ATACCTACATACATACGTACATATATATATATAATG [XGTACX_site234] | 7.52
TTTTAATAAATTCAAAACATAAAAAGGAAAAAAAAA [XGTACX_negctrl_site471] | 6.65
AAATATAATAACATAACACACACATGTATTTATAGG [CACACA_site8009] | 6.83
TATAATGAGAAGATATAATATATAGGGGGTAATTCT [GTGCAC_negctrl_site228] | 6.83
TTTTTTTCATAAGAAGCACACAAAAAATGATAGAGA [CACACA_site8401] | 7.56
ATATATATATATATATGTACTTATTTGTATAAATAC [XGTACX_site8031] | 9.32
ATTCTTTATTATTCGCCACACACATATATATATATA [CACACA_site9009] | 9.44
TATTGGAAAATTAGAAGTACTTTCATATATTAGACT [XGTACX_site4503] | 7.1
TTTTTATTATTCCATAGTACAGAAAAAATGATATAT [XGTACX_site3431] | 7.14
CATATGTCTTGAGATCGTACGTTATTTTTTTTATTT [XGTACX_site1381] | 6.91
TGGTAAATTTACCGTTGTACATTCATTTATAACATT [XGTACX_site8910] | 7.03
AAAAATTATATATATATATATATATATATATGTATA [GTGCAC_negctrl_site488] | 7.77
AAGAATATTAATATAAATAAGTAAATAAATAAATAA [CACACA_negctrl_site417] | 6.99
TATAAATTTAAAATGACACACACTAAAATTATTTAA [CACACA_site1239] | 6.72
TATATATATATATATATATATATATATATATGTATA [TGCATGCA_negctrl_site17] | 9.32
GTATTATTATTATGCACACAAAAATATTTATACATA [CACACA_site3656] | 7.64
ACATACACATATACATGTACATATATATATATATAT [XGTACX_site5082] | 9.71
